Read counts are not given, so values of variants with three or more changes are uncertain.
B1: CPEB3 Ribozyme (parent)
chain: UAACAGGGGGCCACAGCAGAAGCGUUCACGUCGCAGCCCCUGUCAGAUUCUGGUGAAUCUGCGAAUUCUGCUGUAUAUCUC

Variants of: B1
Test: self-cleavage, relative activity (ratio to wild type); higher = more cleavage; in vitro, sequencing
Method in brief: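 Relative activity was defined as the cleaved/total read fraction for a variant divided by the same fraction for the unmutated ribozyme. CPEB3 self-cleaving ribozyme libraries were made by rounds of error-prone PCR, barcoded, and transcribed in vitro with T7 RNA polymerase for 5 hours at 37°C, and cleavage ran through transcription plus a 15 min DNase I step before EDTA. Illumina sequencing of template-switched reverse transcripts gave the reads, and DNA sequencing mapped the barcodes. Averages come from three batches, using variants with at least 5 reads.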

Row | Variant | self-cleavage
1 | A20U U25C G33A G53U A56U | 0.05
2 | A21G U43G A45U G52U A64G | 0.06
3 | A21G G33C A35G U78C | 0.16
4 | A20U U43A A45G | 0.13
5 | A21C U54C U76C | 0.21
6 | A21G A28G U31C A64U | 0.07
7 | A21G U41C A64U U66C | 0.18
8 | A21G U41A U43A U69A | 0.24
9 | A20U U41A U54C C59A | 0.14
10 | A21G U60C U78C | 0.12
11 | A21G A28G U49A U51C U54A | 0.11
12 | A20U U60A U69C | 0.14
13 | A21G G30U C68U U78C | 0.13
14 | A20U U41A U49C U54C C59G U69A | 0.04
15 | A21G A28G U60C | 0.23
16 | A21G A45U A64U | 0.13
17 | A21G U54G A57U | 0.2
18 | A21G U54G A57G | 0.14
19 | A21G U25C U41A U69A U76A | 0.16
20 | A20U U31G U43A | 0.3
21 | A21G C37U A56G U58C U74C | 0.2
22 | A20U U60C A64G U66C U67C | 0.08
23 | A21U C27A A56U U78C | 0.18
24 | A21G U25C U31C C40U A75U | 0.38

Row | Variant | self-cleavage
25 | A21G U26C G30A | 0.17
26 | A21G C23G A64G | 0.31
27 | A21G U51A U78C | 0.49
28 | A21C U60C U80C | 0.18
29 | A21G A45U A47G U48C U80C | 0.27
30 | A21G C37U U41G U72C U76C U78C | 0.1
31 | A21G G33U U58C U67A U69G U72A | 0.04
32 | A21U U26A U51C A57G U69C U78C | 0.08
33 | A21U U26A U69C | 0.07
34 | A21G U25C U67C A75G | 0.06
35 | A21G U26C U58A | 0.2
36 | A21G A45U A56G A77G | 0.06
37 | A20U U41A A56G U60C U78C C81U | 0.08
38 | A21G U31C U76G U78C | 0.12
39 | A21G U25C C81U | 0.06
40 | A20U U25C U31C A45U C79U U80C | 0.07
41 | A20U U49C A77C | 0.07
42 | A21G U43C U60A U69C | 0.06
43 | A20U U51A A77G | 0.28
44 | A20U U49G A64G | 0.19
45 | A21G U49C U60C A77C | 0.06
46 | A21G U41A A45U U49C G61A | 0.16
47 | A21G U49A G52A U54A A56G G61C | 0.19
48 | A21U U41C G53A A64G | 0.31

Row | Variant | self-cleavage
49 | A21C U41A U51A | 0.15
50 | A20U G53A C62U A77G | 0.11
51 | A21G U31C U49C | 0.22
52 | A21G U41A C59A U67C | 0.12
53 | A21U U41A A57G U80C | 0.13
54 | A21G U26A U60C A77U | 0.35
55 | A21G U72A A77G | 0.21
56 | A21U U25A U31C | 0.16
57 | A21G U43A U49C | 0.25
58 | A21U A56U G70C | 0.1
59 | A20U U41C U60A | 0.16
60 | A21G U66C U69A | 0.39
61 | A21U A28U C40A U58C U60C U78A | 0.06
62 | A21G U54C A77U | 0.76
63 | A21G A35U A56G U74A | 0.28
64 | A21G U26C U41C | 0.28
65 | A21U U48C G52C | 0.14
66 | A21U A28G U43A U51C A65G | 0.12
67 | A21G U25C U26C U51A | 0.23
68 | A21G C23G A28G U41C | 0.31
69 | A21C A35G U72C | 0.25
70 | A21G U51C U58A | 0.15
71 | A21U U31A U41C U51C U67G U69C | 0.1
72 | A21G A47G U54A U78A | 0.86

Row | Variant | self-cleavage
73 | A21G A28G U72A U80C | 0.4
74 | A21G U31C U66C | 0.52
75 | A20U U26C A77U | 0.17
76 | A21U U25C U69A | 0.33
77 | A21G U72C C79U | 1.09
78 | A21G C34U A65U | 0.34
79 | A21U A28U U49C U67C | 0.04
80 | A21G U41C A77C U78C | 0.75
81 | A21G A28U A45U U67C U74A | 0.05
82 | A21G A35U C38A | 0.13
83 | A21G U69C U80C | 0.24
84 | A20U U31C U43C U60C C62U G70A | 0.12
85 | A21G U31C U41C A57G U66C | 0.54
86 | A21G C40A U58C | 0.18
87 | A21G U69A U72A U74C | 0.07
88 | A21G U26C A35G A47G U60A | 0.08
89 | A21G U25A U41A | 0.34
90 | A21G G30A U41C U49A U76C U80A | 0.06
91 | A21G U25C A45U U48C A75U | 0.09
92 | A20U U43G U48C A57C C62U | 0.2
93 | A21G U31A C37U | 0.14
94 | A21G A56G U74A | 0.88
95 | A21U U25C U48A U49A U69C U78C U80A | 0.11
96 | A21G U43G A64G | 0.23

Row | Variant | self-cleavage
97 | A21G U41A A45G U60C A75U | 0.17
98 | A21G U25C G33A | 0.3
99 | A21G U67C U69C | 0.15
100 | A21G U48C U51C | 0.19
101 | A21G U26A A75U | 0.43
102 | A21G U26C A56C U76C | 0.16
103 | A21G U58A U78C | 0.13
104 | A21U A64G A77U | 0.41
105 | A20U U26C U48C A57G A64U U80C | 0.12
106 | A21G C40U U72A A75G | 0.38
107 | A21G A35G U60G C81A | 0.51
108 | A21G A35G U69C U78C | 0.7
109 | A21U U48C A65G U76C | 0.05
110 | A21G C27U U41C U67C | 0.06
111 | A21G C44U G61A | 0.73
112 | A21U A45U A57G G70C | 0.19
113 | A21G U25C A28U U41G A56U U72C | 0.04
114 | A21G U25C U43C U49C U58C U76C | 0.18
115 | A21G U26C A75U | 0.51
116 | A21G A35C C39A A45U | 0.04
117 | A21G U54C U58C U60C A77C | 0.11
118 | A21G U31C U41A A47U A56U A75U | 0.15
119 | A21G A28G A47G | 0.31
120 | A21G A28G U69A | 0.24

Row | Variant | self-cleavage
121 | A21G U43C A47G U72A | 0.21
122 | A20U U49C G63A | 0.16
123 | A21G U25C A47G U49C U58C | 0
124 | A21G U26A U41C U67C | 0.16
125 | A21G U26C U80G | 0.17
126 | A20U U43A A57G A64G U66C U78A | 0.16
127 | A20U U41A A56G U72C | 0.27
128 | A20U U54C U78C | 0.22
129 | A21G C32U U69C | 0.15
130 | A21G C39A U58C A65G U69A | 0.07
131 | A21U A45G C50U | 0.18
132 | A21G C29A C38G U41A U54G U69A A77C | 0.05
133 | A21G G30A U72C U78A | 0.05
134 | A21G U26A U43C A45G U48C C71U | 0.04
135 | A21C U72C G73C | 0.1
136 | A21G A28G A45U A64G U67C | 0.17
137 | A21G C29U U74C | 0.66
138 | A21U G52U U67C | 0.53
139 | A20U U54A C62U U78A | 0.16
140 | A21G A56U U72C U76C | 0.29
141 | A21G C62U U67A | 0.15
142 | A21G C27U U43A A56U A65G | 0.1
143 | A21G U26C A35G A47G U51G | 0.66
144 | A21G C39U G52A A77G | 0.32

Row | Variant | self-cleavage
145 | A21G A28U U54C | 0.33
146 | A21C A28U U58A | 0.13
147 | A21U A28U A35G A56U U80A | 0.71
148 | A21G U25C U43C A56G U69C | 0.04
149 | A21G A28G A45G U67C | 0.1
150 | A20U U25C U26A U54A U72G U80C | 0.24
151 | A21G U26C A35U U66C | 0.3
152 | A21U A47G U78C | 0.33
153 | A21G A28G U48A A64G | 0.28
154 | A21G G24C U58A | 0.05
155 | A20U U60C U66C | 0.28
156 | A21G U26C U41A U60C | 0.22
157 | A21G A64G U67C | 0.12
158 | A21G A28U U72A | 0.13
159 | A21G A57G U66G U72C | 0.1
160 | A21U U26C U41G U43C G70A U80C | 0.5
161 | A21G U58C U72A | 0.18
162 | A21G A28G U69C U80A | 0.11
163 | A21G U43C A45G U48C | 0.24
164 | A21G U26C G33A U76C | 0.07
165 | A21G G33A U54A U60C A64U | 0.12
166 | A21G A28G G52U A64U | 0.15
167 | A21U G33A U41A | 0.1
